Out of some 48,000 compounds screened, about 450 (0.94%) were called active. The inconclusive results got no clear call from the source; some entries with a clear call stand among them for comparison. The call rests on the fitted dose curve; in most records, active means well fitted inhibition curve with a large enough effect; inconclusive means small, poorly fitted or top-dose-only effect; inactive means no such curve, though single readings can be large or run the other way. Where the call is inconclusive, the potency comes from a doubtful curve fit.
Experiment: Primary qHTS for Identification of Small Molecule Inhibitors of Huntingtin Promoter Activity; further: nearly all actives have a fitted effect of over 50% in size
Details: HEK293 HTT promoter firefly luciferase reporter (activity 0% = vehicle and -100% = no light), 24 h; activity change, negative = inhibition: at 57.5 µM (top of the series)
Summary of the method: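 Firefly luciferase readout (Dual-Glo, 10 min RT) after 24 h, 37 °C compound exposure (final up to 57.5 uM) of HEK293 reporter cells cultured 24 h beforehand; PTC124 at 50 uM final as control inhibitor; activity scaled vehicle 0%, zero RLU -100%.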
In the case of COc1ccc(OC)c(CNC(=O)c2ccc3nc(C(C)C)oc3c2)c1, the Potency is reported as “inactive”. For CCCc1ccc(S(=O)(=O)N2CCC(c3nnc(-c4cccc(C)c4)o3)CC2)cc1, the Potency was inconclusive: 25.1 µM [inhibitor, partial curve, poor fit]. With Cc1cccc(OC(C)C(=O)Nc2nonc2-c2ccc(Br)cc2)c1C (stereo unspecified) the Potency was inconclusive: 17.8 µM [inhibitor, partial curve]. With CCOc1ccc(N2CC(c3nc4ccccc4n3CCCCOc3ccc(OC)cc3)CC2=O)cc1 (stereo unspecified) the Potency was inconclusive: 39.8 µM [inhibitor, single point]. With Cc1cccc(N2C(=O)CSC23C(=O)N(CC(=O)Nc2cccc(Cl)c2)c2ccccc23)c1 (stereo unspecified) the Potency was inconclusive: 28.2 µM [inhibitor, single point]. With CCOC(=O)c1cc(C)n(CC2CCC(C(=O)Nc3cccc(Cl)c3)CC2)c1C (stereo unspecified) the Potency was inconclusive: 25.1 µM [inhibitor, single point]. With CCN(CC)c1ccc(NC(=O)CN2CCN(c3ccccc3OC)CC2)cc1 the Potency was inconclusive: 35.5 µM [inhibitor, single point]. In the case of COc1ccc(-c2onc(C)c2C)cc1S(=O)(=O)Nc1cccc(C#N)c1, the Potency is reported as inconclusive: 17.8 µM [inhibitor, partial curve, poor fit]. In the case of O=C(NCCc1ccc(Cl)cc1)c1ccc2c(c1)nc1n2CCOC1, the Potency is reported as “inactive”. For CC(C)C(=O)OCc1cccc(OC(=O)[C@@H]2N3C(=O)[C@@H](NC(=O)Cc4ccccc4)[C@H]3SC2(C)C)c1, the Potency was “inactive”. With CNC(=O)c1ccc(-c2cnc3ncc(Cc4ccc5ncccc5c4)n3n2)cc1F the Potency was “inactive”. With Nc1nc(=O)n([C@H]2C[C@H](O)[C@@H](CO)O2)cc1F the Potency was “inactive”. With N#CNC(=NCCCCCCOc1ccc(Cl)cc1)Nc1ccncc1 the Potency was inconclusive: 21.7 µM [inhibitor, partial curve]. With C[C@H]1[C@@H](OC(=O)CCC(=O)O)O[C@@H]2O[C@@]3(C)CC[C@@H]4[C@H](C)CC[C@@H]1[C@@]24OO3 the Potency was inconclusive: 1.09 µM [inhibitor, full curve]. In the case of Cc1nnc2c(N3CCN(c4ccc(F)cc4)CC3)nc3ccc(C(=O)c4ccccc4)cc3n12, the Potency is reported as “inactive”. In the case of CCc1nn2c(=O)cc(COC(=O)c3ccccc3)nc2s1, the Potency is reported as “inactive”. In the case of COc1ccc(C)c2sc(N3CCN(C(=O)c4cccc(F)c4)CC3)nc12, the Potency is reported as “inactive”. For CCOc1ccccc1NC(=O)CN(C)S(=O)(=O)c1ccc(C(=O)N2CCOCC2)s1, the Potency was “inactive”. For COc1ccc(C)cc1NC(=O)C1CCCN(c2ncnc3onc(C)c23)C1 (stereo unspecified), the Potency was inconclusive: 31.6 µM [inhibitor, single point]. In the case of Cc1cccc(NC(=O)CCn2cnc3ccccc3c2=O)c1, the activity change, negative = inhibition is reported as inactive: -14.3% [at 11.5 µM]. In the case of CCOC(=O)c1noc2ncn(CC(=O)Nc3cccc(C(F)(F)F)c3)c(=O)c12, the Potency is reported as “inactive”. In the case of Cc1cc(Nc2cccc(Cl)c2)nc2ccc(NC(=O)c3cncc(Br)c3)cc12, the Potency is reported as inconclusive: 31.6 µM [inhibitor, single point]. For CCOC(=O)C1=C(CN2CCN(c3ccccc3OC)CC2)NC(=O)NC1c1ccccc1 (stereo unspecified), the Potency was inconclusive: 31.6 µM [inhibitor, partial curve, poor fit]. With O=C(Nc1cccc(C(F)(F)F)c1)c1cnn(-c2cccc(F)c2)c1C1CCNCC1 the Potency was “inactive”. With CCOc1ccc(CCNC(=O)c2oc(=O)c3ccccc3c2-c2ccc(C)cc2)cc1OCC the Potency was inconclusive: 39.8 µM [inhibitor, single point]. For CC(C)(C)c1ccc(C(=O)NCCc2csc(-c3ccc(Cl)cc3)n2)cc1, the Potency was inconclusive: 39.8 µM [inhibitor, single point]. In the case of Cc1ccc(C)c(N2CCN(S(=O)(=O)c3ccc4c(c3)C(C(C)C)C(=O)N4)CC2)c1 (stereo unspecified), the Potency is reported as inconclusive: 14.1 µM [inhibitor, partial curve, poor fit]. In the case of COc1cccc(-c2nc(CS(=O)(=O)CC(=O)N3CCN(c4cc(C)ccc4C)CC3)c(C)o2)c1, the Potency is reported as inconclusive: 14.1 µM [inhibitor, partial curve, poor fit]. With CCOC(=O)c1ccc(CN(Cc2ccc(F)cc2)S(=O)(=O)c2ccc(F)c(C(=O)Nc3c(C)cccc3C)c2)cc1 the Potency was inconclusive: 39.8 µM [inhibitor, single point]. With CCOc1ccc(NC(=O)Cn2c(=O)n(CCCCCC(=O)NCc3ccccc3)c(=O)c3sccc32)cc1 the Potency was “inactive”. In the case of COc1ccc(CNC(=O)c2cc3cc(OC)ccc3oc2=O)cc1, the Potency is reported as “inactive”. For CC[C@]1(O)C[C@H]2CN(CCC3=c4ccccc4=N[C]3[C@@](C(=O)OC)(c3cc4c(cc3OC)N(C)[C@H]3[C@@](O)(C(N)=O)[C@H](O)[C@]5(CC)C=CCN6CC[C@]43[C@@H]65)C2)C1, the Potency was inconclusive: 0.385 µM [inhibitor, full curve, poor fit]. For COc1ccc(-c2[nH]c(-c3ccc(Cl)cc3)nc2SCC(=O)NCC2CCCO2)cc1 (stereo unspecified), the Potency was inconclusive: 28.2 µM [inhibitor, single point]. For Cc1cccc(/C=C/c2onc(C)c2S(=O)(=O)N2CCC(C(=O)N3CCCCC3)CC2)c1, the Potency was inconclusive: 17.8 µM [inhibitor, partial curve, poor fit]. For Cc1oc(-c2ccc(C(=O)NCc3ccccc3)cc2)nc1CN1CCc2ccccc21, the Potency was inconclusive: 17.8 µM [inhibitor, partial curve, poor fit]. In the case of COc1ccc(-c2csc3ncnc(Nc4cccc(OC)c4)c23)cc1, the Potency is reported as inconclusive: 25.1 µM [inhibitor, single point]. With CCOCCCNC(=O)c1ccc(-n2c(-c3ccccc3)cc3c2CCC(C)C3)cc1 (stereo unspecified) the Potency was inconclusive: 39.8 µM [inhibitor, single point]. For CCC(=O)N1CCc2cc(Br)cc(S(=O)(=O)CCC(=O)N3CCN(c4cccc(C)c4)C(C)C3)c21 (stereo unspecified), the Potency was “inactive”. For Cc1ccc2c(c1)C(c1ccc(F)cc1)N(C(=O)c1ccc(S(=O)(=O)N3CCCCC3)cc1)CC(=O)N2 (stereo unspecified), the Potency was inconclusive: 39.8 µM [inhibitor, single point]. With Cc1ccc(S(=O)(=O)c2nnn(-c3ccc(F)c(Cl)c3)c2N)cc1 the Potency was inconclusive: 22.4 µM [inhibitor, single point]. In the case of COc1ccc(CCNC(=O)c2nc(-c3ccc(Cl)cc3)n3c2CCCCC3)c(OC)c1, the Potency is reported as inconclusive: 31.6 µM [inhibitor, single point]. With O=C(C1CCN(c2ncnc3c2nc2n3CCCCC2)CC1)N1CCN(c2ccccc2F)CC1 the Potency was inconclusive: 28.2 µM [inhibitor, single point]. For COc1ccccc1CCNC(=O)Cc1ccc(NC(=O)N2CCSc3ncccc32)cc1, the Potency was inconclusive: 5.01 µM [inhibitor, full curve]. With CCOC(=O)c1ccccc1NC(=O)CN(c1cccc(C)c1C)S(=O)(=O)c1ccccc1 the Potency was inconclusive: 35.5 µM [inhibitor, single point]. In the case of CC(=O)N1CCCc2cc(S(=O)(=O)N3CCCC(C(=O)NCc4ccccc4Cl)C3)ccc21 (stereo unspecified), the Potency is reported as inconclusive: 17.8 µM [inhibitor, partial curve, poor fit]. With COc1cccc(NC(=O)CSc2nc3c([nH]c4ccccc43)c(=O)n2-c2cc(C)cc(C)c2)c1 the Potency was inconclusive: 15.8 µM [inhibitor, partial curve, poor fit]. In the case of COc1ccc(-c2nc3ccccc3n3c(-c4cccc(C)c4)c4c(=O)n(C)c(=O)n(C)c4c23)cc1OC, the Potency is reported as inconclusive: 3.55 µM [inhibitor, partial curve, poor fit]. In the case of CC1=C(C(=O)OC2CCCC2)C(c2c(Cl)cccc2Cl)CC(=O)N1 (stereo unspecified), the Potency is reported as inconclusive: 28.2 µM [inhibitor, partial curve, poor fit]. With CCOC(=O)c1[nH]c2c(c1Cc1ccccc1OC)C(=O)CC(c1ccc(OC)cc1)C2 (stereo unspecified) the Potency was inconclusive: 39.8 µM [inhibitor, single point]. For Cc1ccc(NC(=O)Cn2nc(C(F)(F)F)c3c2CCCC3)cc1C, the Potency was inconclusive: 28.2 µM [inhibitor, single point]. For N=C1N=C(N)c2cc3ccccc3cc21, the Potency was inconclusive: 31.6 µM [inhibitor, partial curve, poor fit]. For Cc1ccc(C)c(Cn2c(=O)n(CCCCC(=O)NCc3ccc4c(c3)OCO4)c(=O)c3ccccc32)c1, the Potency was “inactive”. For CC(C)OCCCNc1ncnc2sc3c(c12)CCCC3, the Potency was inconclusive: 22.4 µM [inhibitor, partial curve, poor fit]. In the case of CCc1ccccc1NC(=O)Nc1c(C)n(C)n(-c2ccccc2)c1=O, the Potency is reported as “inactive”. For CN(C)CC[C@H](CSc1ccccc1)Nc1ccc(S(=O)(=O)NC(=O)c2ccc(N3CCN(Cc4ccccc4-c4ccc(Cl)cc4)CC3)cc2)cc1[N+](=O)[O-], the Potency was “inactive”. For CCOC(=O)c1ccc(N2C(=O)c3[nH]nc(-c4ccc(C)cc4)c3C2c2cccs2)cc1 (stereo unspecified), the Potency was inconclusive: 28.2 µM [inhibitor, single point]. In the case of COC(=O)c1scc(-c2ccc(C)cc2)c1S(=O)(=O)Nc1cc(Cl)c(OC)cc1OC, the Potency is reported as “inactive”. For CCCCOc1ccc(Cn2c(=O)sc3ccccc32)cc1OC, the Potency was inconclusive: 39.8 µM [inhibitor, single point]. For Cc1ccccc1CCNC(=O)c1ccc2c(c1)nc1n2CCOC1, the Potency was “inactive”. With N#CC1(c2cccc(C(=O)Nc3cc(Oc4ccc5nc(NC(=O)C6CC6)sc5n4)ccc3F)c2Cl)CC1 the Potency was “inactive”. In the case of C[C@H]1COC2=C1C(=O)C(=O)c1c2ccc2c1CCCC2(C)C, the Potency is reported as “inactive”.
Potency means the concentration at half of the fitted maximal effect; tags describe the fitted curve by direction and shape.
